Source: patent publication US20240101686A1 (SIMCERE ZAIMING PHARMACEUTICAL, published 2024)
Read-outs that look alike come from different tables or passages of the source.

What was measured:
[1] = target: T1, human EGFRvIII-His tag protein (human, UniProt P00533 part only)
T1 construct: Made in HEK293E, purified on nickel column; also called human EGFRvIII protein; not shown: His tag

[2] = target: T2, human EGFR protein (human, UniProt P00533 part only)
T2 construct: also called human EGFR-His; human EGFR-ECD protein; not shown: His tag

[3] = target: T3, Her2 protein (human, UniProt P04626 part only)
T3 construct: Bought protein; also called human Her2 protein

[4] = target: T3, Her2 protein; remark: listed apart in the source
[5] = target: T3, Her2 protein; remark: listed apart in the source
[6] = target: T2, human EGFR protein; remark: listed apart in the source
[7] = target: T3, Her2 protein; remark: listed apart in the source
[8] = target: T3, Her2 protein; remark: listed apart in the source
[9] = target: T3, Her2 protein; remark: listed apart in the source
[10] = target: T3, Her2 protein; remark: listed apart in the source
[11] = target: T4, monkey EGFR protein (cynomolgus monkey, UniProt P55245 part only (rhesus entry))
T4 construct: Bought protein (SB 90285-C08H); also called cynomolgus monkey EGFR

[12] = target: T3, Her2 protein; remark: listed apart in the source
[13] = target: T5, human EGFRvIII-His tag protein (extracellular domain Leu25-Ser378) (human, UniProt P00533 part only)
T5 construct: Made in HEK293E cells, purified on nickel column; also called human EGFRvIII protein; EGFRvIII protein; not shown: His tag

[14] = target: T5, human EGFRvIII-His tag protein …; remark: listed apart in the source
[15] = target: T5, human EGFRvIII-His tag protein …; remark: listed apart in the source
[16] = target: T5, human EGFRvIII-His tag protein …; remark: listed apart in the source
[17] = target: T5, human EGFRvIII-His tag protein …; remark: listed apart in the source
[18] = target: T5, human EGFRvIII-His tag protein …; remark: listed apart in the source
[19] = target: T5, human EGFRvIII-His tag protein …; remark: listed apart in the source
[20] = target: T5, human EGFRvIII-His tag protein …; remark: listed apart in the source
[21] = target: T6, murine EGFR protein (murine, UniProt Q01279 25-647)
T6 construct: Bought protein

[22] = target: T6, murine EGFR protein; remark: listed apart in the source
[23] = target: T6, murine EGFR protein; remark: listed apart in the source
[24] = target: T6, murine EGFR protein; remark: listed apart in the source
[25] = target: T6, murine EGFR protein; remark: listed apart in the source
[26] = target: T6, murine EGFR protein; remark: listed apart in the source
[27] = target: T6, murine EGFR protein; remark: listed apart in the source
[28] = target: T6, murine EGFR protein; remark: listed apart in the source

OD450 [13] | OD450 [14] | OD450 [15] | OD450 [16] | OD450 [17] | OD450 [18] | OD450 [19] | OD450 [20] | OD450 [21] | OD450 [22] | OD450 [23] | OD450 [24] | OD450 [25] | OD450 [26] | OD450 [27] | OD450 [28] | other results | Binder
– | – | – | – | – | – | – | – | – | – | – | – | – | – | – | – | Kd [1]: 0.0249 µM; koff [1]: 13.3 s⁻¹; kon [1]: 5.32e+08 M⁻¹ s⁻¹; Kd [2]: 0.0366 µM; koff [2]: 0.00862 s⁻¹; kon [2]: 235000 M⁻¹ s⁻¹; OD450 [3]: 0.09; OD450 [4]: 0.05; OD450 [5]: 0.11; EC80 [6]: 24.5 mg/L; OD450 [7]: 0.09; OD450 [8]: 0.12; OD450 [9]: 0.18; OD450 [10]: 0.16; Kd [11]: 0.0135 µM; koff [11]: 0.00147 s⁻¹; kon [11]: 109000 M⁻¹ s⁻¹; OD450 [12]: 0.09 | S008-NB149-9 (Fc fusion, Tested as VHH-Fc; order VHH-hinge-Fc inferred) QVQLVESGGFVQAGGSLRLSCAASGRTFSKYAMGWFRQAPGKEREFVAAIRWIGGSTYYADSVKGRFTISRDNDKNTLYLQMNSLKPEDTAVYYCAAGYQAYPEPPWEYDYWGQGTQVTVSS[human IgG1 Fc with changes not shown]
2.38 | 2.32 | 0.94 | 0.1 | 0.21 | 2.05 | 2.6 | 0.08 | – | – | – | – | – | – | – | – | – | S008-NB148-13 VHH-Fc antibody (Fc fusion) EVQVVESGGGLVQPGGSLRLSCAASDDISSIYTMAWYRQAPGKQRELVALVTPGGGTNYADSVKGRFTISRDNAKNTVYLQMNSLKPEDTAVYYCNARHRVTGFAYWGQGTQVTVSS[human IgG1 Fc with changes not shown]
2.41 | 2 | 0.25 | 0.06 | 0.08 | 1.21 | 2.41 | 0.06 | 1.34 | 2.72 | 0.05 | 0.22 | 0.07 | 0.05 | 2.38 | 2.71 | – | S008-NB148-2 VHH-Fc antibody (Fc fusion) EVQVVESGGGLVQAGGSLRLSCAASGSTFSSYAMTWYRQAPGKQRELVAAISSGGSTNYAASVKGRFTISRDNAKNTLYLQMNTLKPEDTAVYYCNTDWGNGFSAEYDYWGQGTQVTVSS[human IgG1 Fc with changes not shown]
2.36 | 2.2 | 0.73 | 0.08 | 0.16 | 1.87 | 2.53 | 0.07 | – | – | – | – | – | – | – | – | – | S008-NB148-69 VHH-Fc antibody (Fc fusion) EVQVVESGGGLVQAGGSLRLSCAASTITISSAGVSWYRQAPGKQRELVAIITRGGSTNYADSVKGRFTISRDNAKNTHYLQMYNLKPEDTGIYYCNVVPPTYWGQGTQVTVSS[human IgG1 Fc with changes not shown]
2.47 | 2.32 | 0.84 | 0.06 | 0.21 | 1.99 | 2.58 | 0.08 | – | – | – | – | – | – | – | – | – | S008-NB148-9 VHH-Fc antibody (Fc fusion) EVQLVESGGGLVQAGGSLRLSCAASGSTLSSYAMGWYRQAPGKQRELVAAISSGGGSTNYRDSVKGRFTISRDNAKNTVYLQMNSLKPEDTAVYYCKSTDYGSLFDSWGQGTQVTVSS[human IgG1 Fc with changes not shown]
0.32 | 0.29 | 0.07 | 0.11 | 0.06 | 0.18 | 0.58 | 0.06 | – | – | – | – | – | – | – | – | – | S008-NB149-9 VHH-Fc antibody (Fc fusion) QVQLVESGGFVQAGGSLRLSCAASGRTFSKYAMGWFRQAPGKEREFVAAIRWIGGSTYYADSVKGRFTISRDNDKNTLYLQMNSLKPEDTAVYYCAAGYQAYPEPPWEYDYWGQGTQVTVSS[human IgG1 Fc with changes not shown]
– | – | – | – | – | – | – | – | 1.13 | 2.98 | 0.05 | 0.17 | 0.06 | 0.05 | 2.43 | 2.83 | – | S008-NB148-52 VHH-Fc antibody (Fc fusion) EVQLVESGGGLVQAGGSLRLSCAASGFRIINDRMAWYRQAPGKQREAVASIDYAGSTTYAEFVKGRFTISRDNTKNMVTLQMNNLEPEDTAVYYCNTAPIARFRGQGTQVTVSS[human IgG1 Fc with changes not shown]
– | – | – | – | – | – | – | – | 0.06 | 0.09 | 0.07 | 0.07 | 0.06 | 0.06 | 0.06 | 0.08 | – | S008-NB149-20 VHH-Fc antibody (Fc fusion) EVQVVESGGGLVQPGGSLRLSCAASGSGFTINAMTWYRRAPGKERELVAIITNGGITNYADSVKGRFTISRDNAKSTVYLQMDGLEPEDTAVYYCNIVPPVYWGQGTQVTVSS[human IgG1 Fc with changes not shown]
– | – | – | – | – | – | – | – | 0.05 | 0.07 | 0.05 | 0.05 | 0.05 | 0.05 | 0.05 | 0.05 | – | S008-NB149-60 VHH-Fc antibody (Fc fusion) QLQLVESGGGLVQPGGSLRLSCAASRSISSINTMTWYRYQGPGKERELVALITLGGTTNYADSVKGRFTISRDDAKNTLYLEMNSLKPEDTAVYYCNAVPPFRWGQGTQVTVSS[human IgG1 Fc with changes not shown]
– | – | – | – | – | – | – | – | 1 | 1.77 | 0.05 | 0.23 | 0.08 | 0.05 | 1.86 | 1.96 | – | S008-NB149-64 VHH-Fc antibody (Fc fusion) EVQVVESGGGLVQPGGSLRLSCVASGIIFSSYAMGWYRQAPGKQRELVARISSGGGLYYEDPVKGRFTISRDNARNTVYLQMSSVKPEDTAVYYCNVVPYTPGYWGQGTQVTVSS[human IgG1 Fc with changes not shown]
